These are yes or no findings as the source states them, for the method shown. Binding seen in cells or lysates may run through a third protein. Some results given as binding are weak or reduced against the parent protein; the word gives no strength. Blank lines part the entries; values can stand above or below the substance they belong to.
Tests used:
[1] = target: GST-PAK4 (human) (UniProt O96013); assay: pull-down; GST or GST-fusion proteins on glutathione-conjugated Sepharose beads incubated with proteins transcribed and translated in vitro; bound proteins detected by auto-radiography; only the target purified
[2] = target: p21-activated kinase 4 (PAK4), endogenous (human (endogenous in MCF-7 and ZR-75-30)) (UniProt O96013); assay: co-IP; endogenous proteins in MCF-7 cells (Supplementary Figure 3b)
[3] = target: PAK4, exogenous in HEK 293T cells (human) (UniProt O96013); assay: co-IP; exogenous proteins in HEK 293T cells (Supplementary Figure 3a)
[4] = target: GST-ERα (human) (UniProt P03372); assay: pull-down; GST or GST-fusion proteins on glutathione-conjugated Sepharose beads incubated with proteins transcribed and translated in vitro; bound proteins detected by auto-radiography; only the target purified
[5] = target: p21-activated kinase 4 (PAK4), endogenous (human (endogenous in MCF-7 and ZR-75-30)) (UniProt O96013); assay: co-IP; MCF-7 cells without E2 stimulation (Supplementary Figure S2)
[6] = target: p21-activated kinase 4 (PAK4), endogenous (human (endogenous in MCF-7 and ZR-75-30)) (UniProt O96013); assay: co-IP; nuclear fraction of MCF-7 cells treated with E2 (10^-9 M) for 45 min
[7] = target: p21-activated kinase 4 (PAK4), endogenous (human (endogenous in MCF-7 and ZR-75-30)) (UniProt O96013); assay: co-IP; MCF-7 and ZR-75-30 cell lysates immunoprecipitated with PAK4 antibodies or IgG; endogenous ERα and PAK4 detected by immunoblot
[8] = target: p21-activated kinase 4 (PAK4), endogenous (human (endogenous in MCF-7 and ZR-75-30)) (UniProt O96013); assay: condition: only cytoplasmic extracts of MCF-7 cells treated with E2 (10^-9 M) for 45 min; co-IP; cytoplasmic fraction of MCF-7 cells treated with E2 (10^-9 M) for 45 min

Sequences of proteins named here, by UniProt entry; tags and fusion partners are left off.
UniProt O96013: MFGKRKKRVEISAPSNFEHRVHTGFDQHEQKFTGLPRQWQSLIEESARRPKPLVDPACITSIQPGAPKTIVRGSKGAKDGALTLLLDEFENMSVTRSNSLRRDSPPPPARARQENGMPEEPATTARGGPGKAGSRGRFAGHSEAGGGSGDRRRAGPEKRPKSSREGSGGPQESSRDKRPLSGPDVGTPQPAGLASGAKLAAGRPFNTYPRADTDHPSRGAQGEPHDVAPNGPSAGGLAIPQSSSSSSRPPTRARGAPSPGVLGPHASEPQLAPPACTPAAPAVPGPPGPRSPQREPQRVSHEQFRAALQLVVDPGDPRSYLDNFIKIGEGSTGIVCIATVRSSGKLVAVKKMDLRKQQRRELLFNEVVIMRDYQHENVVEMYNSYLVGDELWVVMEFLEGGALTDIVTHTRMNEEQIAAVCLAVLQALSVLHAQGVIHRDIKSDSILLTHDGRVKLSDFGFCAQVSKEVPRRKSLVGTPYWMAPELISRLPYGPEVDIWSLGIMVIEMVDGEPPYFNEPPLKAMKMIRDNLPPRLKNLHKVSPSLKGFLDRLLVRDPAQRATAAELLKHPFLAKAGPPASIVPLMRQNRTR
UniProt P03372: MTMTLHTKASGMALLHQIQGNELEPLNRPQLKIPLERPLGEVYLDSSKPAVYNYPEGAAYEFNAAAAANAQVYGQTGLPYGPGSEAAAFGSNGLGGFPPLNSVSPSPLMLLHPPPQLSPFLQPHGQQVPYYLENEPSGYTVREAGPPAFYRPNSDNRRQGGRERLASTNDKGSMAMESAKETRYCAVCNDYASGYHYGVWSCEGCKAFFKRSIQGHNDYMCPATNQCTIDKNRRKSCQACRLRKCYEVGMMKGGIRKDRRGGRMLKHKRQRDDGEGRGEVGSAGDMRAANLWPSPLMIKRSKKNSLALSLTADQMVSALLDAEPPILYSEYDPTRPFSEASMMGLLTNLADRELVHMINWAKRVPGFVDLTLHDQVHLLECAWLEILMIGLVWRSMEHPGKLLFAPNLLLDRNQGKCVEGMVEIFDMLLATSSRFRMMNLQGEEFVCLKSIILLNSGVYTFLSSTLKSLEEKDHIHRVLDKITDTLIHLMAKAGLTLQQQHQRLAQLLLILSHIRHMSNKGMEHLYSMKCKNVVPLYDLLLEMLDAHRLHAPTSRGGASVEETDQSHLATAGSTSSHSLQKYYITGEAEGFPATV
UniProt Q13547: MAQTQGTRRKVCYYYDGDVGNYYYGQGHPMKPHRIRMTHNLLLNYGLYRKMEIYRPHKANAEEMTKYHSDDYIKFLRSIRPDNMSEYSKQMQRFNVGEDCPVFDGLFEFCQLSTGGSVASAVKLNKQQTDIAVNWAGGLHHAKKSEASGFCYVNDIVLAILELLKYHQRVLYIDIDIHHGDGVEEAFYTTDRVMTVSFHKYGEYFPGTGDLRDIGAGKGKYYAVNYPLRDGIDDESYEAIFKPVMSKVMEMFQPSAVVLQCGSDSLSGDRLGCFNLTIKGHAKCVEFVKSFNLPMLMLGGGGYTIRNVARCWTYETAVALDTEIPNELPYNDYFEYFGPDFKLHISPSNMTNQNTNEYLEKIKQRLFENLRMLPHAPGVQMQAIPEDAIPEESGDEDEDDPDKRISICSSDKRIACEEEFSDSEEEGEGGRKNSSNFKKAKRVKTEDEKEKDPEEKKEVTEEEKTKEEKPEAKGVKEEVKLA

- binding [1]: binds
Substance: ERα, transcribed and translated in vitro (from UniProt P03372 1-595) (receptor)

- binding [2]: binds
Substance: HDAC1, endogenous (from UniProt Q13547 1-482) (enzyme)

- binding [3]: binds
Substance: HDAC1, exogenous in HEK 293T cells (from UniProt Q13547 1-482) (enzyme)

- binding [4]: binds
Substance: PAK4, transcribed and translated in vitro (from UniProt O96013 1-591) (enzyme)

- binding [6]: binds
- binding [7]: binds
- binding [8]: no binding
Substance: estrogen receptor alpha (ERα), endogenous (from UniProt P03372 1-595)
- binding [5]: no binding (condition: without E2 stimulation)

Reference: PMC6367215
